Measured values published in the supplement of paper PMC10126150.
Sequences with one replicate were seen in a single cluster, so their values are uncertain.

tested on: ATP; test: switch fluorescence ratio, 500 uM ATP over buffer (Cy3 cluster intensity, sum of 5 cycles each) (fold (ratio)); higher = stronger signal-on switching upon ATP binding; sequences stand for … in TCGTCGGCAGCGTCAGATGTGTATAAGAGACAGTTTTTTTTTTTTTTTTTTTTTTTTT…TC; settings: aptamer strand: ATP DNA aptamer (quencher-CACCTGGGGGAGTATTGCGGAGGAAGG + anchor), 100 nM annealed; ATP concentration: 500 uM; one replicate
How it was run: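 Clusters with intensities outside 100-1000 RFU were excluded. The remaining Cy3-labelled switching-strand clusters on a modified Illumina MiSeq flow-cell had been annealed to 100 nM quencher-labelled ATP aptamer and imaged in selection buffer, then after 15 min with 500 uM ATP at 22 °C, for five cycles separated by NaOH stripping and re-annealing. The fluorescence ratio, averaged per switch-domain sequence, is each cluster's summed target-cycle Cy3 intensity over its summed buffer-cycle Cy3 intensity.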
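Also: ATP exposure 15 min at 22 °C before imaging.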

Sequence	switch fluorescence ratio
ATTTGCCAAT	0.979
ATTTGCTAAG	0.983
ATTTGGCGGA	0.996
ATTTGGTAG	1.04
ATTTGGTGCC	1
ATTTGTAATA	1.03
ATTTGTAT	1.05
ATTTGTCATG	0.987
ATTTGTCCTA	0.991
ATTTTAACCT	1.95
ATTTTACACT	1.03
ATTTTACCGT	1.04
ATTTTACTG	1.04
ATTTTAGAGG	0.997
ATTTTATGTT	0.985
ATTTTCCT	1.04
ATTTTCTCCA	1.02
ATTTTGACCG	1.08
ATTTTGCACA	0.968
ATTTTGCGGG	0.976
ATTTTGCTGA	0.943
ATTTTGGGCA	0.999
ATTTTGTCC	0.972
ATTTTGTT	1.01
ATTTTTACGT	1

Sequence	switch fluorescence ratio
CAAAAACACT	1.02
CAAAAGACCG	1.02
CAAAAGCGCC	1.01
CAAAAGGTAC	1.15
CAAAATTCGT	0.995
CAAACATACT	1.35
CAAACGGTTC	0.965
CAAAGAAGTC	0.961
CAAAGATGCC	0.981
CAAAGCGAAG	1.01
CAAAGGAAGA	0.967
CAAAGGGGAA	1.05
CAAAGTTATT	1.02
CAAATAATTG	1.02
CAAATCATAT	0.935
CAAATCCGAG	1.07
CAAATCGATT	0.938
CAAATCGGTG	1
CAAATCGTGC	1.06
CAAATGAGTA	1.02
CAAATGCAGT	1.03
CAAATTCAGA	0.989
CAACAAGGAG	0.992
CAACACCGTA	1.01
CAACACTAAC	1.17

Sequence	switch fluorescence ratio
CAACAGCCCA	1.05
CAACAGCTGT	0.988
CAACAGGCTA	1.01
CAACATCATG	1.01
CAACCGCGGG	1.06
CAACCTAGCG	1.01
CAACGACAAG	1.05
CAACGCACAA	1.72
CAACGGGGGC	1.16
CAACGTAGAC	2.29
CAACGTGGGA	1.07
CAACTAAACG	1.15
CAACTATCTT	1.03
CAACTGAGTA	1.02
CAACTGCGAC	1.79
CAACTTAGAT	0.993
CAACTTTACG	1.13
CAAGAAGAGC	1.01
CAAGAAGCTA	1.03
CAAGAATGTT	0.958
CAAGAGTCTT	0.979
CAAGATGCCC	0.982
CAAGATGTTT	0.955
CAAGCATTAT	1.47
CAAGCTCTGA	1.02

Sequence	switch fluorescence ratio
CAAGGACGGT	1.03
CAAGGCCGGT	1.02
CAAGGCTACT	0.986
CAAGGGAGAT	1
CAAGGGCCTG	0.995
CAAGGGTGCG	1.01
CAAGGTCATT	1.01
CAAGGTTATT	1.06
CAAGGTTCC	1.08
CAAGTACCTG	1.28
CAAGTGGCAG	0.971
CAAGTGTAGG	0.976
CAAGTTCGC	1.03
CAAGTTCGG	0.913
CAAGTTGCGC	1
CAATAAAAAA	0.955
CAATAAGTA	1.01
CAATAATATT	1.03
CAATACATC	1.07
CAATACGTGG	1.07
CAATATACCC	1.13
CAATATAG	0.981
CAATATCAGT	0.95
CAATCCTAAT	0.966
CAATCGCAGA	1.02
